# Reference: PubChem BioAssay AID624202 (National Center for Advancing Translational Sciences (NCATS), 2012)
# Out of some 380,000 compounds screened, about 4,000 (1.1%) were called active. Inconclusive results, whose numbers are uncertain, are shown with a selection of clear calls. Calls come from the whole dose curve; as a rule, active = well fitted activation curve with a large enough effect; inconclusive = small, poorly fitted or top-dose-only effect; inactive = no such curve, though single readings can be large or run the other way. Potencies of inconclusive entries are doubtful fits and often do not repeat.
# Experiment: qHTS Assay to Identify Small Molecule Activators of BRCA1 Expression; note: nearly all actives have a fitted effect of over 80% in size
# Conditions: MCF7-BRCA1-FFLuc reporter, luminescence, 48 h; activation: at 46.1 µM (top of the series), scaled: vehicle 0%, 10 µM genistein 100% unless noted
# In short: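 Luminescence from a BRCA1-driven firefly luciferase in MCF7 cells was the read-out, taken 15 min after substrate addition following 48 h compound exposure at 37 °C. Data were normalized to a 10 microM genistein control and DMSO vehicle.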
# Potency is the fitted concentration of half-maximal effect; tags give direction and shape of the fitted curve.
Structure (SMILES),Potency,activation
O=[N+]([O-])c1ccc(COc2ccc(CN3CCOCC3)cc2)cc1,"inconclusive: 1.58 µM [activator, full curve, poor fit]",
CC(C)CC(=O)Nc1ccc2nn(-c3ccccc3)nc2c1,"inconclusive: 1.41 µM [activator, full curve, poor fit]",
Cc1snc2sc(C(=O)c3ccc(F)cc3)c(N)c12,active: 10 µM,
Cn1cc(C(=O)c2ccc(Cl)cc2Cl)cc1C(=O)N/N=C(\N)COc1ccc(F)cc1,,inactive: -35.2%
N#C/C(=C/c1ccc(N2CCCCC2)o1)c1cccc(F)c1,,inactive: -47.5%
Cc1cccc(N2CN(Cc3ccco3)CNC2=S)c1,,inactive: 0.181%
C/C(=N\NC(=O)c1nn(C)c(C)c1Br)c1ccc(NC(=O)C2CCCC2)cc1,active: 5.01 µM,
CCOc1ccc(NC(=O)CCc2c(C)nn(-c3ccc(N4CCCCC4)nn3)c2C)cc1,active: 11.2 µM,
Cc1ccc2c(COC(=O)c3n[nH]c4ccccc34)cc(=O)oc2c1,active: 3.16 µM,
O=C(Nc1ccn(Cc2ccccc2)n1)c1cccc(F)c1,"inconclusive: 1 µM [activator, full curve, poor fit]",
Cc1ccc(N2Cc3ccccc3C2=O)cc1,"inconclusive: 1.58 µM [activator, partial curve, poor fit]",
O=C(NN=Cc1ccc2c(c1)OCO2)c1ccccc1,"inconclusive: 2.51 µM [activator, full curve, poor fit]",
CCCCCCSc1nsc(NC(=O)CCC)n1,"inconclusive: 10 µM [activator, partial curve, poor fit]",
COC(=O)c1cc(NC2c3ccccc3C(=O)N2c2ccc(Cl)cn2)cc(C(=O)OC)c1 (configuration not stated),"inconclusive: 12.6 µM [activator, partial curve, poor fit]",
O=C(CCN1C(=O)/C(=C\C=C\c2ccccc2)SC1=S)Nc1ccc(C(=O)O)cc1,"inconclusive: 11.2 µM [activator, partial curve, poor fit]",
C#CCN(C[C@H]1[C@H](OC(=O)NC2CC2)[C@H](OC(=O)NC2CC2)C[C@H]2C(=O)N(c3ccccc3)C(=O)[C@@H]12)S(=O)(=O)c1ccc(C)cc1,"inconclusive: 3.16 µM [activator, partial curve, poor fit]",
Cc1ccc(NC(=O)C(=O)NCC2CCCO2)cc1 (configuration not stated),active: 10 µM,
COc1cccc(N/C=C/C(=O)c2ccc(Br)cc2)c1,"inconclusive: 2 µM [activator, partial curve, poor fit]",
COc1ccc2oc(C(=O)C3CC3)c(N)c2c1,active: 6.31 µM,
Cc1cccc(NC(=O)c2n[nH]c([N+](=O)[O-])c2Br)c1C,,inconclusive: -79.4% [activator]
Cc1ccc(NC(=O)c2ccc(C)cc2)cc1,"inconclusive: 2.24 µM [activator, partial curve, poor fit]",
O=C(NCCOc1ccccc1)c1cc2ccccc2o1,"inconclusive: 2.51 µM [activator, full curve, poor fit]",
COc1cccc(NC(=O)c2csc3c2CCCC3)c1,"inconclusive: 3.98 µM [activator, full curve, poor fit]",
COc1ccccc1OCCSc1nnnn1C1CCCCC1,"inconclusive: 7.08 µM [activator, partial curve, poor fit]",

Structure (SMILES),Potency,activation
COc1ccc(-c2coc3cc(O)c(OC)cc3c2=O)cc1,"inconclusive: 35.5 µM [activator, single point]",
CN1C(C(=O)Nc2ncccn2)=C(O)c2ccccc2S1(=O)=O,,inactive: -14.8%
O=C(N/N=C/c1ccc(OCc2ccccc2)cc1)c1cccs1,"inconclusive: 10 µM [activator, partial curve, poor fit]",
O=C(/C=C/c1ccc(F)cc1)N1CCc2ccccc2C1,"inconclusive: 11.2 µM [activator, single point]",
CCCCSc1nnc2c(n1)[nH]c1ccccc12,"inconclusive: 3.98 µM [activator, full curve, poor fit]",
CCCOc1cccc(C(=O)NC(=S)Nc2ccccc2)c1,"inconclusive: 11.2 µM [activator, partial curve, poor fit]",
CC(C)(C)C1CCc2c(sc(NC(=O)CSc3ncn[nH]3)c2C#N)C1 (configuration not stated),,inactive: -73%
Cc1ccc2cc(/C=N/Nc3ccc(C(=O)O)cc3)c(Cl)nc2c1,"inconclusive: 2 µM [activator, partial curve, poor fit]",
CCCC(=O)N(CCN1CCOCC1)c1nc2c(F)cc(F)cc2s1,"inconclusive: 35.5 µM [activator, single point]",
Cn1ccsc1=NC(=O)c1ccc(S(=O)(=O)C(F)F)cc1,active: 12.6 µM,
Cn1c(CO)cnc1SCC(=O)c1ccc(F)cc1,active: 10 µM,
O=C(NCc1ccc2c(c1)OCO2)Nc1ccc(Cl)cc1,active: 11.2 µM,
S=C(Nc1ccccc1)Nc1ccc(Cl)cc1Cl,"inconclusive: 7.94 µM [activator, partial curve, poor fit]",
O=C(N/N=C/c1ccccn1)c1cc(-c2ccccc2Cl)n[nH]1,,inactive: 3.71%
CN(C)c1ccc(NC(=S)NC(=O)/C=C/c2ccc(Cl)cc2)cc1,"inconclusive: 11.2 µM [activator, partial curve, poor fit]",
N#Cc1c(N)nc2c(c1N)CC(COc1ccccc1)O2 (configuration not stated),active: 11.2 µM,
CCC1CCCCN1Cc1cc(OC)c(O)c([N+](=O)[O-])c1 (configuration not stated),,inactive: 0.387%
CN1/C(=C\C(=O)COC(=O)CNC(=O)c2ccc3ccccc3c2)C(C)(C)c2ccccc21,,inactive: 3.45%
CCOc1cc(N2CCOCC2)c(OCC)cc1NC(=O)c1cccc(S(=O)(=O)N2CCOCC2)c1,,inactive: -11.7%
CC(=O)Nc1ccc(SC[C@H](CC(C)C)N2CCN(CCc3ccccc3)CCC2=O)cc1,,inactive: -22.4%
Cc1ccc(SCC(=O)NCCSC(C)(C)C)cc1,active: 8.91 µM,
Cc1cc(C)cc(N=c2c([N+](=O)[O-])nn(-c3ccc(Cl)cc3)n2O)c1,,inactive: -21.2%
N/C(=N\OC(=O)COc1cc(Cl)c(Cl)cc1Cl)c1ccccn1,,inconclusive: 37.3% [activator]
